Activity change, negative = inhibition data for 29 compounds are collected here from PubChem BioAssay AID1745853 (National Center for Advancing Translational Sciences (NCATS), 2022).

Some of the results follow. The main result of the screen is listed elsewhere. These columns were measured beside it and carry no call.

Test in all cases: Primary Screen for Target Class Profiling of Small Molecule Inhibitors of Methyltransferases
In experiment [1] the target is Glycine N-methyltransferase (Homo sapiens) (UniProt Q14749). Particulars: purified enzyme, MTase-Glo SAH luminescence; measured here: GNMT inhibition; at 40 µM; stronger effect = lower value. In outline:
(§1)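 Each enzyme was assayed with SAM and its substrate. SAH formation detected by MTase-Glo luminescence; single-point 40 uM screen[…].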

Experiment [2] addresses Guanidinoacetate N-methyltransferase (Homo sapiens) (UniProt Q14353). Particulars: purified enzyme, MTase-Glo SAH luminescence; measured here: GAMT inhibition; at 40 µM; stronger effect = lower value. The method in brief:
as §1

Experiment [3] addresses Histamine N-methyltransferase (Homo sapiens) (UniProt P50135). Particulars: purified enzyme, MTase-Glo SAH luminescence; measured here: HNMT inhibition; at 40 µM; stronger effect = lower value. In outline: as §1
The target in experiment [4] is Nicotinamide N-methyltransferase (Homo sapiens) (UniProt P40261). Particulars: purified enzyme, MTase-Glo SAH luminescence; measured here: NNMT inhibition; at 40 µM; stronger effect = lower value. The method in brief: as §1
Experiment [5] concerns the target Phenylethanolamine N-methyltransferase (Homo sapiens) (UniProt P11086). To be noted: purified enzyme, MTase-Glo SAH luminescence; measured here: PNMT inhibition; at 40 µM; stronger effect = lower value. In outline:
as §1
% is set by controls: 0 for no effect and ±100 for the full control effect.

Turning to `Cc1ccc(CNC(=O)C2CCCN(c3cnn(Cc4ccccc4)c(=O)c3)C2)o1` (configuration not stated), the activity change, negative = inhibition was -5.76% in experiment [1]; -0.267% in experiment [2]; -0.631% in experiment [3]; -4.32% in experiment [4]; -1.46% in experiment [5].
Regarding `Cc1ccc2c(c1)c(-n1cccc1)c1n2CC(C)(C(=O)NC2CCCCC2)N(Cc2cccnc2)C1=O` (configuration not stated), the activity change, negative = inhibition in experiment [1] was -7.14%; in experiment [2], 0%; in experiment [3] it was -3.37%; in experiment [4], -18.9%; in experiment [5] it was -2.48%.
The matching figures for `CCCn1c(=O)c2cc(Cl)ccc2n2c(=O)n(CC(=O)Nc3ccc(C)cc3Cl)nc12`: -1.12%, -1.5%, 3.37%, 0.637% and -2.68%.
The matching figures for `COc1ccccc1CN[C@H]1CC(C)(C)[C@@H]2C[C@@](C)(O)CC[C@]12CCC(=O)NCCc1c[nH]c2ccccc12`: -14.5%, -6.22%, -42.8%, -15.9% and -1.08%.
For `CN(c1ccccc1)S(=O)(=O)C1CCS(=O)(=O)C1` (configuration not stated), in that order: -4.98%, -2.59%, -3.05%, -9.9% and 6.19%.
Consider `COc1cc2nc(N3CCCCC3)nc(NC3CCN(C)CC3)c2cc1OC`, for which the activity change, negative = inhibition in experiment [1] was -5.1%; in experiment [3], -85.9%; in experiment [4] it was -4.46%; in experiment [5], 17.4%.
Regarding `CC(=O)O[C@@H]1[C@H]2[C@@H](OC(=O)c3ccccc3)[C@@H](C)C[C@]2(O)[C@H](OC(C)=O)[C@@]2(C)[C@@H]3CC(C)(C)C(=O)[C@]3(OC(C)=O)C[C@@]12C`, the activity change, negative = inhibition in experiment [1] was -1.18%; in experiment [2], -6.11%; in experiment [3], 6.53%; in experiment [4] it was -21.2%; in experiment [5], 0.328%.
The matching figures for `Cc1ccccc1NC(=O)CSc1nnc2n(CCc3ccccc3)c(=O)c3ccccc3n12`: 1.13%, 0%, 6.41%, 0.324% and 3.36%.
The matching figures for `O=S(=O)(NCCn1c(CCc2ccccc2)nc2ccccc21)c1ccc2c(c1)CCCC2`: -2.48%, -1.99%, 2.31%, -19.6% and -0.589%.
As for `O=c1cc(N2CCOCC2)oc2c(N3CCN(c4ccccn4)CC3)nccc12`, the activity change, negative = inhibition is -4.26% in experiment [1]; -0.661% in experiment [2]; -2.82% in experiment [3]; -29.9% in experiment [4]; -0.805% in experiment [5].
The matching figures for `CCOc1ccc(CNC(=O)CNC(=O)C2(C)Cn3c(cc4ccccc43)C(=O)N2C)cc1` (configuration not stated): 3.75%, 0%, 8.47%, 0.551% and 5.68%.
In the case of `CC(C)OCCCNC(=O)C1(C)Cn2c(cc3ccccc32)C(=O)N1Cc1ccc2c(c1)OCO2` (configuration not stated), the activity change, negative = inhibition in experiment [1] was -2.98%; in experiment [2] it was 4.86%; in experiment [3], -0.241%; in experiment [4], 4.48%; in experiment [5], -0.605%.
As to `CCNc1ncc(C(=O)N[C@H](C2CCNCC2)C2CC(O)C2)cn1` (some centres not stated), the activity change, negative = inhibition is -1.6% in experiment [1]; 2.27% in experiment [2]; -23% in experiment [3]; -4.13% in experiment [4]; -18.1% in experiment [5].
`CC/C=C\[C@H](O)[C@H](O)C1=C(C)C(=O)[C@]2(O1)C(=O)N[C@@](OC)(C(=O)c1ccccc1)[C@@H]2O`: the activity change, negative = inhibition in experiment [1] is -2.97%; in experiment [2], 1.61%; in experiment [3] it was 1.1%; in experiment [4] it was -9.06%; in experiment [5], -2.14%.
As for `COCC1(CNS(=O)(=O)c2ccc(Cl)cc2)C[C@@H](O)[C@@H](O)C1` (some centres not stated), the activity change, negative = inhibition in experiment [1] was -2.3%; in experiment [2] it was 0.395%; in experiment [3], -22.5%; in experiment [4], -17.7%; in experiment [5] it was -9.63%.
As for `O=C(CCNNC(=O)c1ccncc1)NCc1ccccc1`, the activity change, negative = inhibition is -2.97% in experiment [1]; 5.07% in experiment [2]; 2.18% in experiment [3]; -5.1% in experiment [4]; 4.97% in experiment [5].
For `CCOC(=O)C1CCN(c2nc3c(S(=O)(=O)c4ccccc4)nnn3c3ccccc23)CC1`, in that order: -6.07%, 4.46%, -2.92%, -4.77% and -2.56%.
As to `CC(C)=CCc1cc(O[C@@H]2O[C@H](CO[C@@H]3OC[C@](O)(CO)[C@H]3O)[C@@H](O)[C@H](O)[C@H]2O)ccc1O`, the activity change, negative = inhibition in experiment [1] is 4.62%; in experiment [2], 2.85%; in experiment [3], 9.11%; in experiment [4], -9.7%; in experiment [5], -1.46%.
`Cc1nc2c(c(C)c1CCC(=O)N1CCN(c3ccccc3)CC1)c(=O)n(C)c(=O)n2C`: the activity change, negative = inhibition in experiment [2] was -9.44%; in experiment [4], -11.7%; in experiment [5] it was 0.478%.
Take `Fc1ccccc1CNCc1ccc(-c2ccnc3[nH]ccc23)cc1`: the activity change, negative = inhibition in experiment [1] is -0.904%; in experiment [2] it was -0.075%; in experiment [3], -25.2%; in experiment [4], -36.1%; in experiment [5], -17.3%.
For `Cc1cccc(CCNC(=O)CCc2nnc3n(Cc4ccccc4)c(=O)c4ccccc4n23)c1`, in that order: -10.2%, 5.09%, -1.85%, -16% and -0.88%.
The matching figures for `Cc1cnc(-c2ccccc2C(C)C)nc1NCc1ccc(-n2ccnn2)cc1`: -4.22%, -11.6%, 0.311%, -27.5% and -7.66%.
`O=C(NCC1CCN(c2cc(-c3ccc(Cl)cc3)[nH]n2)CC1)c1ccc(=O)[nH]c1`: the activity change, negative = inhibition in experiment [1] is -15.2%; in experiment [2], -13.5%; in experiment [3] it was -9.44%; in experiment [4], -22.5%; in experiment [5] it was -19.5%.
For `CC1CCC2C(C)(C)[C@H](O)CC[C@]2(C)C12Cc1c(O)cc3c(c1O2)CN(C(CCC(=O)O)C(=O)O)C3=O` (some centres not stated), in that order: 0%, 1.77%, -3.2%, -9.94% and 1.54%.
With `CCCn1c(=O)c2[nH]c(C3CCCC3)nc2n(CCC)c1=O`, the activity change, negative = inhibition is -6.18% in experiment [1]; 0.431% in experiment [2]; -3.48% in experiment [3]; -13.1% in experiment [4]; -3.71% in experiment [5].
With `Cc1ccc(C)c(N2C(=O)c3cc4sccc4n3CC2(C)C(=O)NC2CCC(C)CC2)c1` (configuration not stated), the activity change, negative = inhibition in experiment [1] was 2.7%; in experiment [2], 0%; in experiment [3], 3%; in experiment [4], 2%; in experiment [5] it was -2.52%.
The matching figures for `COc1ccccc1NC(=O)CSc1nnc2n(CC(C)C)c(=O)c3cc(F)ccc3n12`: -2.37%, 3.93%, 6.76%, -9.44% and -0.642%.
On to `COC(=O)c1cc2n(n1)CC(C)(C(=O)NC1CCCC1)N(c1ccc(OC)cc1)C2=O` (configuration not stated), for which the activity change, negative = inhibition in experiment [1] came out at 1.44%; in experiment [2] it was 2.93%; in experiment [3], 9.91%; in experiment [4], 2.67%; in experiment [5] it was 2.31%.
For `CCOC(=O)c1cc2n(n1)CC(C)(C(=O)NCCC(C)C)N(c1ccc(C)cc1C)C2=O` (configuration not stated), in that order: 3.11%, 2.12%, 4.95%, 12.4% and 1.78%.
